Measured values reported in paper PMC4336329 (PLoS ONE, 2015).
The campaign covered roughly 310,000 compounds. About 14,000 (4.5%) showed an effect of 50% or more. Effects have a minus sign here. The list shows a part of the results.

Target: human ether-à-go-go-related gene (hERG) potassium channel (human, UniProt Q12809)
Assay: primary screen, population patch clamp on CHO cells stably expressing hERG
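Also: peak tail current of the secondary pulse compared with the same well before compound.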

Sequence of human ether-à-go-go-related gene (hERG) potassium channel (Q12809 whole entry, looked up): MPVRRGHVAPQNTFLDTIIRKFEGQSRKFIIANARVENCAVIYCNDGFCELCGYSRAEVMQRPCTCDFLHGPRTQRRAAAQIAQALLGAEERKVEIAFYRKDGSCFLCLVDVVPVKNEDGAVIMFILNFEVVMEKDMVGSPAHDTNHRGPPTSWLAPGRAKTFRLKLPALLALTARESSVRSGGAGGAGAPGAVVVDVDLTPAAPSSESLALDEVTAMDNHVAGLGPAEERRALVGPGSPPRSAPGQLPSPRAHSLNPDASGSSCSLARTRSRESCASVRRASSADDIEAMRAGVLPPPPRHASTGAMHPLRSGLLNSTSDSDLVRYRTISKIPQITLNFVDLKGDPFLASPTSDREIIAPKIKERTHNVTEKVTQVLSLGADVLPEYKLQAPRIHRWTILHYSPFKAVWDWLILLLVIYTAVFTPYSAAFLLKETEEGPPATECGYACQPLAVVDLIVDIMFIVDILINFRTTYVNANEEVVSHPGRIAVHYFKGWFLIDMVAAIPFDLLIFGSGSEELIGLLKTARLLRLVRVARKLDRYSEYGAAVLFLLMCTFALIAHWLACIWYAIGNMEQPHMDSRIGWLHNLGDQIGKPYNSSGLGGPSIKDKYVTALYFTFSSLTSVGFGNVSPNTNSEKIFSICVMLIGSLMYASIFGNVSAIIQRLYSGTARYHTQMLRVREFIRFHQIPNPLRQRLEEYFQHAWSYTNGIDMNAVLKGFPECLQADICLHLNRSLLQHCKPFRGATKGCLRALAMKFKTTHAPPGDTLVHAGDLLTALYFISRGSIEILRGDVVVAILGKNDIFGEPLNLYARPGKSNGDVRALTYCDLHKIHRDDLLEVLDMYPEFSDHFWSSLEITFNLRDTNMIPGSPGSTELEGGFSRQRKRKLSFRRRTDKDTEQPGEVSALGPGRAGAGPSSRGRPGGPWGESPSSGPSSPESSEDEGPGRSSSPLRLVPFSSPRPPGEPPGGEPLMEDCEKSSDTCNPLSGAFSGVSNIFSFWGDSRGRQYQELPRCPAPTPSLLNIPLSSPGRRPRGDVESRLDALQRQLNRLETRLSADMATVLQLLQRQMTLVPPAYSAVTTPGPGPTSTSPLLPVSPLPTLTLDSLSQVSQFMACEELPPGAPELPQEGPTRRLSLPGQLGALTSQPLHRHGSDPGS

Row | SMILES | hERG current change (%, negative = inhibition) at 10uM
1 | CCN1CCCC1CNC(=O)C(=O)Nc1ccccc1OC (stereo not shown) | -15%
2 | CC(=O)C1=C(O)C(=O)N(c2ccccn2)C1c1ccccc1[N+](=O)[O-] (stereo not shown) | 14.2%
3 | O=C(Nc1ccc(OC(F)F)cc1)c1cc[n+]([O-])cc1 | -0.758%
4 | CC(=O)N1CCN(c2ccc(NC(=O)c3ccc(C)c([N+](=O)[O-])c3)cc2)CC1 | -8.57%
5 | COc1ccc(OCC(O)CN2CCOCC2)cc1 (stereo not shown) | 15.3%
6 | Cc1cc(Cl)ccc1NNC(=O)c1c(C)noc1C | 19.2%
7 | Cc1ccc(NC(=O)c2sccc2C)cc1S(=O)(=O)N(C)C | -20.6%
8 | Cc1cccc(NC(=O)CNC(=O)C23CC4CC(CC(Cl)(C4)C2)C3)n1 | -6.02%
9 | Cc1cccc(Cl)c1NNC(=O)Nc1c([N+](=O)[O-])c(C)nn1C | -3.29%
10 | Cc1csc(Nc2ccc(Cl)cc2)[n+]1-c1ccc(Cl)cc1.[Br-] | 14.9%
11 | CC(=O)c1cccc(OCC(=O)N(C)CC(=O)Nc2ccc(F)cc2)c1 | -8.68%
12 | CC(=O)Nc1ccc(S(=O)(=O)NCc2nc(-c3ccccc3)no2)cc1 | 14.3%
13 | Cc1cc(C)cc(SCc2noc(C(=O)NC(C)C)c2C(=O)NC(C)C)c1 | 10.2%
14 | CC(C)c1ccc(N2C(=O)/C(=C/N(C)C)SC2=S)cc1 | -14.1%
15 | Cc1c(OCC(=O)NCCCN2CCOCC2)ccc2c1oc(=O)c1ccccc12 | -46.6%
16 | Cc1cccc(/N=C/c2c(O)n(Cc3ccc4c(c3)OCO4)c(=O)c3ccccc23)n1 | 3.15%
17 | CC(NCC(c1ccco1)N1CCCCC1)C(=O)NC1CCCC1.Cl (stereo not shown) | 3.21%
18 | CCOC(=O)CSc1nc2sc(C(=O)O)c(C)c2c(=O)[nH]1 | 10.7%
19 | O=C(O)C/C(=C\c1cc(Br)cs1)c1nc2ccccc2o1 | 8.59%
20 | COC(=O)c1ccccc1N=Nc1c(N)n[nH]c1N | 14.8%
21 | CCN(CCNC(=O)C1CCC(=O)N1Cc1ccc(C)cc1)c1ccccc1 (stereo not shown) | -23.4%
22 | O=C1CN(c2nc(-c3cccnc3)nc3sc4c(c23)CCCC4)CCN1 | -41.5%

Row | SMILES | hERG current change (%, negative = inhibition) at 10uM
23 | CCN(C1CCCCC1)S(=O)(=O)c1ccc(S(=O)(=O)NCc2ccncc2)cc1 | -4.63%
24 | CCOC(=O)c1sc(NC(=O)/C=C/c2cnn(C)c2C)c(C(=O)OC(C)C)c1C | 1.98%
25 | O=c1[nH]c2ccccc2cc1CN(Cc1cccnc1)S(=O)(=O)c1ccc(Cl)cc1 | -56.2%
26 | O=C(NC(=O)c1c(Cl)cccc1Cl)Nc1ccc(Oc2cccnc2)nc1 | 6.69%
27 | NC(=O)CSc1ccc(-c2ccc(F)cc2)nn1 | 16.6%
28 | Fc1cccc(NC(=S)Nc2cccnc2)c1 | 41.5%
29 | CC(=O)c1ccccc1NC(=O)COC(=O)CSCC(=O)Nc1cc(C)on1 | -1.32%
30 | COCCn1c(C)nnc1SCC(=O)Nc1ccccc1[N+](=O)[O-] | 24.2%
31 | COc1ccc(NC(=S)N2CCCC2)c(OC)c1 | 11.3%
32 | N#Cc1ccc(/C=C2\CCn3c2nc2cc(C(=O)O)ccc2c3=O)cc1 | 4.16%
33 | COc1cccc(CNc2cccc3cccnc23)c1O | -12.4%
34 | O=S(=O)(Nc1ccc(-c2cn3ccsc3n2)cc1)c1ccc2c(c1)OCCO2 | 1.05%
35 | COc1cccc(NC(=O)C2CCCN(S(=O)(=O)c3ccc(-n4cnnn4)cc3)C2)c1 (stereo not shown) | -9.56%
36 | CC(=O)OC1c2c(ccc3ccc(=O)oc23)OC(C)(C)C1OC(=O)CC(C)C (stereo not shown) | -30.4%
37 | CC1(C)Cc2c(C#N)c(NCCN3CCOCC3)nc(-c3ccccc3)c2CO1 | -17.1%
38 | O=c1c2[nH]c3ccc(F)cc3c2ncn1CCCn1ccnc1 | -61.1%
39 | COC(=O)C1C2C=CC3(CN(C4CCCC4)C(=O)C13)O2 (stereo not shown) | 22.3%
40 | C=CCCCCCCCCC(=O)NNC1CC(=O)N(c2ccccc2)C1=O (stereo not shown) | 26.2%
41 | CC(Oc1ccc2c3c(c(=O)oc2c1)CCC3)C(=O)N[C@@H](Cc1ccccc1)C(=O)O (stereo partly shown) | 7.43%
42 | CC(Oc1ccc(C(C)(C)C)cc1)C(=O)NCC(c1ccco1)N1CCCC1 (stereo not shown) | -40.8%
43 | Cc1ccc(C(CNC(=O)c2ccc(Br)o2)N2CCN(C)CC2)cc1 (stereo not shown) | -60.4%
